The list shows a part of the results.
T1: UNK ZnF1-3 (human, UniProt Q9C0B0 31-174)
T1 sequence: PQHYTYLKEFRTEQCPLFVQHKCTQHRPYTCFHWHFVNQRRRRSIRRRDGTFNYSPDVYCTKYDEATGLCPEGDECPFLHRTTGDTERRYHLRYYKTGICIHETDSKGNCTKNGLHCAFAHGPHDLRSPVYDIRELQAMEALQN

B1: chr10:70097624:70097625:+_ENSG00000096746_ENST00000354695|hu_mus|motif|central (ssRNA)
RNA: GGGAGUUCUACAGUCCGACGAUCCUUUGAUUUCACUCCUGCUACUCCUGAAGAUCUCAAUAUACCUUGAAAGAACUGAACGGUUUCCUCUUUGCUGCAACCAAAUGGCAGUCCACGAAGUCGCACGGUCCCAUCGCUAGCGUCCAACAGAGGAUUGAGCAUCA
B2: chr7:135612270:135612271:-_ENSG00000105887_ENST00000393085|hu_mus|hu_hu_hu_mus_False|8_38 (ssRNA)
RNA: GGGAGUUCUACAGUCCGACGAUCGUUUUUUUCUGAGAUGUUAAAUAGUACUUCAGUGGAAAACAAAACUUAACCUUUUAUUAAUGCGUGUUGUACCAGAAAGCAAAAUUUUAGCUUCAUUUAUUCACUCAAAAUAUCAUUAAGCAACAGAGGAUUGAGCAUCA
B3: chr9:106594412:106594413:-_ENSMUSG00000040661_ENSMUST00000046502|mus_mus|FALSE|FALSE (ssRNA)
RNA: GGGAGUUCUACAGUCCGACGAUCCACUGUGAUGUCUAACUCAGUAGCCAUAAACCCUCACACUCUGACUGACACUUCAAAAAAGAUCAAUUCAUUUCUUUUUAGUUUACUCUUAGUUUUUCCCUUCCCUGCCCUCCCACUUUCCAACAGAGGAUUGAGCAUCA
B4: chr1:137302511:137302512:-_ENSMUSG00000041879_ENSMUST00000161189|perfect_dup|motif|central (ssRNA)
RNA: GGGAGUUCUACAGUCCGACGAUCCUUAACAGUGCUUUUGAAUUUGCUAUUUUCUAGUAGAGCAUGGACAAAUUCAAAAAUGCGGAAGACGAGAUUUUCAAAGCCCAGGACUUCACCAUCAGAAUCCACAGGAUCUUCUACUUCCAACAGAGGAUUGAGCAUCA
B5: chr7:44244176:44244177:+_ENSG00000106636_ENST00000223369|hu_mus|hu_hu_hu_mus_False|18_108 (ssRNA)
RNA: GGGAGUUCUACAGUCCGACGAUCACUAUCAUUCCGGACGUAGACAUGGCAAAGAUACUCUUGUUCUUUGACAGAAGCUCUGCUGCCUUUCCCCGAGCGUUCCACAAUCAGUUGACUCGUGAAGGUCAUGAAUUCCUGCACACUCAACAGAGGAUUGAGCAUCA
B6: chr16:33496766:33496767:+_ENSMUSG00000022811_ENSMUST00000165418|mus_mus|motif|central (ssRNA)
RNA: GGGAGUUCUACAGUCCGACGAUCUGAUCCAACAUUCUCUGACUGGGUGACUUCAGGUACAUCGGAAGAAUUGAUUGAUAUGCGGGAAGUCACUUCAGUAUCUGCAACGCUGAAGGAAAUCUCAUGCUGUCCAUUAGGUUUGUGCAACAGAGGAUUGAGCAUCA

These binders were tested against T1, UNK ZnF1-3 (assay: nsRBNS (natural sequence RNA bind-n-seq); RBNS binding buffer (assumed for nsRBNS): 25 mM Tris pH 7.5, 150 mM KCl, 3 mM MgCl2, 0.01% Triton X-100, 500 ug/ml BSA, 20 U/ml SUPERase-In, 4 C; UNK is unkempt and MSI1 is Musashi-1; names of the RNAs are library labels; protein concentration not given here; high values mean tight binding).

Row | Binder | binding signal [enrichment R]
1 | B1 | 0.772
2 | B2 | 0.874
3 | B3 | 1.18
4 | B4 | 1.17
5 | B5 | 0.652
6 | B6 | 0.644
